From paper PMC12607630
Results are given in words; binding and its absence hold for the method and conditions named. Some entries that bind do so weakly or less than the wild type.

By UniProt entry, the sequences of proteins in these tests, tags left out. Residues count along the entry.
FtsZ^316-383 (bacterial two-hybrid fusion) (P0A9A6, residues 316-383): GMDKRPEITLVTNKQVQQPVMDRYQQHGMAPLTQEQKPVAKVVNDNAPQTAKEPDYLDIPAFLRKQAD
SUMO-FtsZ^316-370 (P0A9A6, residues 316-370): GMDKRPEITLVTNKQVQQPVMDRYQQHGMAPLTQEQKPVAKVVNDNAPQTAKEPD
UniProt P75862: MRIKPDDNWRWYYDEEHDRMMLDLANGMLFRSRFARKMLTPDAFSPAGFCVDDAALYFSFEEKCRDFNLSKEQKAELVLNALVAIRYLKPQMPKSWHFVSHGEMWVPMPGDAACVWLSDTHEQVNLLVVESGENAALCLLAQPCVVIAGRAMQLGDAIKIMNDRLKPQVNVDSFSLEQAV

Experiments:
[1] = molecular target: FtsZ^316-370 (bacterial two-hybrid fusion) (Escherichia coli) (UniProt P0A9A6); assay: two-hybrid; bacterial two-hybrid in strain LYA1 (BTH101, ftsA^R286W); LB plates with antibiotics, 40 µg/mL X-gal and IPTG, 30°C, about 18 hours
[2] = molecular target: FtsZ^316-383 (bacterial two-hybrid fusion) (Escherichia coli) (UniProt P0A9A6); assay: as above
[3] = molecular target: SUMO-FtsZ^316-370 (Escherichia coli) (UniProt P0A9A6); assay: BLI; SUMO fusions of FtsZ or its parts, or SUMO alone (0.5 µM), held on Ni-NTA biosensors; untagged ZapC in solution; Octet-Red96, 30°C, 1× Pol buffer; apparent Kd from the signal at the end of association, one-site fit; both purified

ZapC (bacterial two-hybrid fusion) (from UniProt P75862 1-180)
binding [1]: no binding | binding [2]: binds

ZapC (untagged) (from UniProt P75862 1-180)
binding [3]: no binding
